Data as given in article PMC4336329 (PLoS ONE, 2015).
The campaign covered roughly 310,000 compounds. About 2,200 (0.71%) showed an effect of 50% or more. The effect is printed as a negative number. The list shows a part of the results.

Each molecule was assayed against human ether-à-go-go-related gene (hERG) potassium channel (human, UniProt Q12809) (assay: primary screen, population patch clamp on CHO cells stably expressing hERG).
Sequence of human ether-à-go-go-related gene (hERG) potassium channel (Q12809 whole entry, looked up): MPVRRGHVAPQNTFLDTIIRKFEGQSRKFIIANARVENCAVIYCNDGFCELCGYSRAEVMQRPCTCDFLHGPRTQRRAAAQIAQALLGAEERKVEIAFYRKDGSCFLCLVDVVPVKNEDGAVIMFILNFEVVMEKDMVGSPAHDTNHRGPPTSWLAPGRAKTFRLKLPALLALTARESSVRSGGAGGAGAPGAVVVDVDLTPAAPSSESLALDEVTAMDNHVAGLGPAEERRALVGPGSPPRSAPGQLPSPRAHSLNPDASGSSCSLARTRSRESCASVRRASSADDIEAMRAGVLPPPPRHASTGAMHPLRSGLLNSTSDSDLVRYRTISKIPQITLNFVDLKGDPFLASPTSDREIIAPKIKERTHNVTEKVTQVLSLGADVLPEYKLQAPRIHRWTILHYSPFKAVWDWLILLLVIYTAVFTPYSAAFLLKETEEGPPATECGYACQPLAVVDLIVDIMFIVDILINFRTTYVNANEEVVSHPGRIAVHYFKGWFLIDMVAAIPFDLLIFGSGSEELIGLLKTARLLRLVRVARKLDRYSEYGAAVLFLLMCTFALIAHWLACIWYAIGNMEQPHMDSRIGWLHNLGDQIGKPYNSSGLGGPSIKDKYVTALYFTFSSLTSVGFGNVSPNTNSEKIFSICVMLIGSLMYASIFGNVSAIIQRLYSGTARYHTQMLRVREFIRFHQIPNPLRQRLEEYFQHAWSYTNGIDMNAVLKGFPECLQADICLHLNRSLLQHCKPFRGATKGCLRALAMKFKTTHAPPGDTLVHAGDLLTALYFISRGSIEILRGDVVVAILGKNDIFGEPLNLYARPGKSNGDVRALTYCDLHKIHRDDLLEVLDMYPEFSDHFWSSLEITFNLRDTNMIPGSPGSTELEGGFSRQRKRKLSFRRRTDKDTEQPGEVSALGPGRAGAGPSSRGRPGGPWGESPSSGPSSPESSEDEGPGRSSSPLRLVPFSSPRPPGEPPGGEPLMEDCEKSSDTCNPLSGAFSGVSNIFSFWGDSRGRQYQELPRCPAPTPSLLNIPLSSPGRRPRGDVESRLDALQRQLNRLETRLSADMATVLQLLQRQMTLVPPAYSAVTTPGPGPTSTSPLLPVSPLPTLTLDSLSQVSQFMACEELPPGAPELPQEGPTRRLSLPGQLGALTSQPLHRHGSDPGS

Structure (SMILES) | hERG current change (%, negative = inhibition) at 1uM [%]
CCCN1CCC(NC(=O)C2CCCCC2C(=O)O)CC1 (centres unmarked) | 13.7
CCN(CC)CCCNC(=O)CN1N=C(c2ccc(OC)cc2)CCC1=O | 12.5
NS(=O)(=O)c1ccc(CNC(=O)NC2(c3ccccc3)CC2)cc1 | 10.7
Cc1ccc(S(=O)(=O)NCC(=O)N2CCCCC2)cc1 | 8.11
Cn1cc(S(=O)(=O)Nc2cccc3ccccc23)c(=O)n(C)c1=O | -13.9
CCN(CC)P(=O)(c1ccccc1)c1c(C)nc2ccccn12 (centres unmarked) | 9.7
Cc1cccc(/C=C/C(=O)c2ccc([N+](=O)[O-])o2)c1 | 8.53
CCOC(=O)CN1C(=O)C(=O)N(Cc2ccccc2F)C1=O | 12.2
Cc1ccc(N/C(N)=N/c2nc(C(F)(F)F)cc(C(F)(F)F)n2)cc1 | 9.94
Cc1nc(C)c(C(=O)C2=C(O)C(=O)N(CCN3CCOCC3)C2c2ccco2)s1 (centres unmarked) | 8.87
COC(=O)c1cn(Cc2c(C)cc(C)cc2C)nn1 | 8.06
Cc1cc(C)[n+](Cc2ccccc2)cc1C(N)=O.[Cl-] | 15.1
O=C(CNC(=O)c1ccc(N2C(=O)c3ccccc3C2=O)cc1)OCC(=O)c1ccccc1 | 11
CCOC(=O)/C=C1\SCC(=O)N1CC(=O)Nc1cccc(F)c1 | 10.8
COC(=O)CC1COc2ccccc2N1C(=O)c1ccc(C(C)(C)C)cc1 (centres unmarked) | 3.35
Cc1nc2nc(SCC(=O)N3CCOCC3)nn2c(C)c1Cc1ccccc1 | 6.96
O=C1CCC([N+](=O)[O-])C(c2ccccc2Br)N1 (centres unmarked) | 19.7
O=C(Cn1nnc2ccccc21)N1CCCCC1 | 2.74
CC(=O)Nc1ccc(NC(=O)COC(=O)c2ccc(C)s2)cc1 | 13.9
Cc1nc2ccccc2c(=O)n1-c1ccc(-c2ccccc2)cc1 | 9.59
COc1ccc(C[C@H]2CN3C(=NC[C@@H]3C(C)C)N2C[C@H](C)NC(=O)c2ccc(C)c(Br)c2)cc1 | -41.9
CC(=O)c1c(C)[nH]c(C(=O)Nc2nc(C)cs2)c1C | 4.36
CSc1nnc(NC(=O)c2ccc(S(=O)(=O)N(C)C)cc2)s1 | 14.6

Structure (SMILES) | hERG current change (%, negative = inhibition) at 1uM [%]
CCCCn1c(N)c(N(CC(C)C)C(=O)CCCc2cccs2)c(=O)[nH]c1=O | 1.71
CCOC(=O)C1(Cc2cccc(F)c2)CCN(Cc2cn(CC)nc2C)CC1 | -6.14
CCN(C(=S)Nc1cccnc1)c1ccccc1 | 5.82
CCOc1ccccc1-n1c(O)c(C=Nc2c(C)n(C)n(-c3ccccc3)c2=O)c(=O)[nH]c1=O | 8.47
Cc1cc(=O)n2c(-c3ccccc3C)n[nH]c2n1 | -3.44
CC(C)NC(=O)Cn1c(=O)cnc2ccccc21 | 3.1
COC(=O)c1ccc(C)c(NS(=O)(=O)c2cn(C)nc2C)c1 | 9.83
CCc1nc(SCC(=O)NNC(=O)C(C)C)c2ccccc2n1 | 13.7
COc1ccc(S(=O)(=O)Nc2ccc3c(c2)N(C(C)=O)CCC3)cc1 | 9.13
O=C(c1ccc(Cl)cc1)N(c1ccccn1)C1CCCCC1 | 18
Cc1cc(C)n(CC2CC(=O)N(c3ccc(Cl)c(Cl)c3)C2=O)n1 (centres unmarked) | 8.07
COc1ccc(/C=N/Nc2ncc(Br)cn2)c(OC)c1 | 16.4
CCNC(=S)N1CCCCC1CO (centres unmarked) | 8.16
Cc1ccc(S(=O)(=O)N2CCN(C(=O)COC(=O)COc3cccc4c3OC(C)(C)C4)CC2)cc1 | 11.8
CC1(C)CC(=O)C2=C(C1)NCN(Cc1ccc3c(c1)OCO3)C2 | -1.66
COc1cc(CNc2ccccc2SC)ccc1O | 4.46
Cc1noc(C)c1C(=O)Nc1ccccn1 | -3.65
Fc1ccc(-c2nnsc2Sc2ccccn2)cc1 | 8.4
CN(C)c1ccc(C(=O)c2ccccc2C(=O)O)cc1[N+](=O)[O-] | 12.6
CCOC(=O)c1cnn(-c2cc(Oc3ccccc3C)ncn2)c1N | 6.52
CCOc1ccccc1Oc1coc2cc(OC(=O)c3ccco3)ccc2c1=O | -16.6
COc1cc(C(C)=O)ccc1Oc1ncnc2c1cnn2-c1ccc(C)c(C)c1 | 9.42
Cc1ccc2nc(-c3ccc(NS(C)(=O)=O)cc3)cc(-c3ccccc3)c2c1 | 6.3

Structure (SMILES) | hERG current change (%, negative = inhibition) at 1uM [%]
Cc1cc(C)n2nc(CCCCc3nc4nc(C)cc(C)n4n3)nc2n1 | 15.7
CC1(C)C(=O)Nc2ccccc2N1C(=O)CSc1nnc2c(Cl)cc(Cl)cn12 | 3.67
N#Cc1ccc(Oc2cccc(C(=O)O)c2)cc1C#N | 4.25
CSc1cccc(CNC(=O)CC2C(=O)NCCN2CC(C)(C)C)c1 (centres unmarked) | 9.97
O=C(CSc1nc(Nc2ccccc2)nc(N2CCOCC2)n1)N1CCc2ccccc21 | 5.89
CC(=O)c1ccc(OC(NC(=O)c2ccco2)C(Cl)(Cl)Cl)cc1 (centres unmarked) | -0.753
O=C(Nc1ccc(F)cc1)C1CCCN1S(=O)(=O)c1cccc2nsnc12 (centres unmarked) | 3.54
CC(Sc1nnnn1C)C(=O)Nc1ccccc1 (centres unmarked) | 8.45
N#Cc1ccc(Oc2nc(C(N)=O)cc(-c3ccccc3)n2)cc1 | 7.52
Cc1nc(-c2ccc3c(c2)OCCCO3)cs1 | 14.4
O=C(CSc1ccc(Cl)cc1)NC1CCCC1 | 10.7
CS(=O)(=O)N1CCC(C(=O)Nc2ccccc2Sc2ccccc2)CC1 | -1.17
O=C(/C=C/c1cccc([N+](=O)[O-])c1)NCC1CCCO1 (centres unmarked) | 3.55
COc1cc(/C=C2\SC(=S)N(Nc3ncc(C(F)(F)F)cc3Cl)C2=O)ccc1O | 16.7
CCOC(=O)N1CCN(CC(O)COCc2ccccc2)CC1.Cl (centres unmarked) | 4.29
CCOc1cc2[nH]c(=O)n(CCCN3CCCC3=O)c(=O)c2cc1OCC | 0.793
O=S(=O)(Cc1ccc(Cl)cc1)NCc1ccc2c(c1)OCO2 | 9.01
CCOc1ccc(CCNC(=O)c2cccnc2N2CCCC2)cc1OCC | 12.3
O=C1N(Cc2cccc(Cl)c2)C[C@@H]2C[C@@H](c3ccc4nonc4c3)N3CCC[C@@]123 | -9.26
CC1(C)NC(=O)N(CCOc2ccc([N+](=O)[O-])cc2)C1=O | 2.44
CC(=O)c1cccc(NC(=S)NC(=O)c2ccc(Cl)cc2)c1 | 5.34
COc1cccc(/C=N/N(C)C2=NS(=O)(=O)c3ccccc32)c1O | 9.89
COc1ccccc1-c1c(C)nn2c(-c3ccccc3)cc(C)nc12 | 7.9

Structure (SMILES) | hERG current change (%, negative = inhibition) at 1uM [%]
Cc1ccc2c(c1)c(N=NC(N)=S)c(O)n2Cc1ccccc1 | 18.6
O=C(CSc1n[nH]c(-c2ccc(Cl)cc2Cl)n1)Nc1ccccn1 | 9.12
COc1ccc(C(=O)N2CCNC(=O)C2CC(=O)Nc2ccc(C)c(C)c2)cc1 (centres unmarked) | 19.1
NS(=O)(=O)c1ccc(-c2ccc(C=NC3CCS(=O)(=O)C3)o2)cc1 (centres unmarked) | -0.403
Cc1ccc(C(=O)CC2SC(N)=NC2=O)cc1 (centres unmarked) | 6
O=[N+]([O-])c1cccc(S(=O)(=O)NCCc2ccccc2)c1 | 13
CCc1cc[n+](-c2nc3ccccc3nc2[N-]S(=O)(=O)c2ccc(Br)s2)cc1 | 6.99
Cc1ccc([N+](=O)[O-])c(NC(=O)COC(=O)C2CC3CCCC(C2)C3=O)c1C (centres unmarked) | 5.4
Cn1c(=O)oc2cc(S(=O)(=O)N3CCC(C(=O)Nc4ccc(OC(F)(F)F)cc4)CC3)ccc21 | 9.7
Cc1ccccc1C(=O)NC1CCN(CC(=O)NCc2cccs2)CC1 | 6.66
CCOC(=O)C1=C(COC(=O)CC(C)c2ccccc2)NC(=O)NC1C (centres unmarked) | 5.95
CCN(CC)C(=O)COC(=O)c1ccc(O)cc1 | 7.36
CC(=O)c1ccc(Oc2cc(C)nc(-n3nc(C)cc3C)n2)cc1 | -9.96
O=C(NCc1nc2ccccc2[nH]1)c1ccco1 | 8.59
CC(NC(=O)c1ccccc1NC(=O)c1ccco1)C(=O)O (centres unmarked) | 5.33
CCC(CC)NC(=O)Nc1ccccc1C(F)(F)F | 6.33
Cc1ccc(O)c(NC(=O)/C=C/C(=O)O)c1 | 39.2
CCN(CC)S(=O)(=O)c1ccc(Cl)c(NC(=O)CCCCl)c1 | -8.31
CC1CC(C)CN(C(=O)C2CC(=O)N(c3ccc(F)cc3)C2)C1 (centres unmarked) | -3.25
O=C(O)c1cn(-c2ccccc2)nc1C(=O)O | 11.2
CCN(CC)c1ccc(NC(=S)NC(=O)c2cccs2)cc1 | 13
COc1ccc(CNc2nc(SCC(=O)NCc3ccco3)nc3ccccc23)cc1 | -49.8
CCC1CCCCN1C(=O)CCCOc1ccccc1 (centres unmarked) | 1.24
